# Data taken from the RNAGym collection of RNA variant scans (doi:10.7554/elife.90254).
# The source gives no read counts; variants with many changes may rest on few reads.
# B1: LINE1-full (parent)
# chain: UACGUAGGUGGUUUUCCCCUGAUAGUGCUAAGGGGGCCUGGAAGUUUGGACUGGGCAGAGCUCAACACAGCGUGGCAAAGUGGCUGUGGCUAGACUGCCUCUCUGGAUUCCUCGUCACUCAGCAGGGCAUCUCUGAGAGAAAUGCC
# Variants of: B1
# Test: self-cleavage, relative activity (ratio to wild type); higher = more cleavage; in vitro, sequencing; the parent is a self-cleaving ribozyme
row,Variant,self-cleavage
1,U46C A67U A94G U112C A141G,0
2,U46A G80U U81C A107G,0.73
3,U46C U130C A140G A142U,1.53
4,U46C U62C U104A,0.09
5,U46A G60A G83A U87A,0.03
6,U47A A64U A92U,0.11
7,U46C A107U U112A,1.84
8,U46C C90A A117G,0
9,U45G U73G A92U,0.16
10,U46C C76U A77G U132C A138G,2.55
11,A43U U109C A138C,1.72
12,U45C A57U A107G A141G,0.14
13,U45A U81A A121G A140G,2.07
14,U46C U62C A65G A69G A117U,0
15,A43U U52C C66A A129G,0.02
16,U45C C66A U115C A136G A138G,0.11
17,U45C A107U U115C,1.6
18,U46A A107G A129G,0.79
19,U46C U96A A107G,0.21
20,U46C A57G A69G,0
21,U46C U73A U100C A121G,2.87

row,Variant,self-cleavage
1,A43U A69G U96A A107U G137U,0.04
2,U45C U47C C71A U81A,0.39
3,U46G A124G U130A,2.02
4,U46A C68U U87G,0.08
5,U45C U112A U119C U132C A142G,0
6,U45A U87A U119C U134C,0.08
7,U46C A77U A121G A129C,2.07
8,U45C A67U U85G U100C A140G,0
9,U46C A69U A78C U85C G137A,0.11
10,A43U G44A A107G U115C,0.77
11,U46C U102C A117G,0.66
12,U45G U73A U87C U96A A107G,0.17
13,A43U G58A A67G U104C U112C,0
14,U45A U81A A94G U100C,0.56
15,G44A U100C U132C,2.05
16,U45A A57U U87A,0.04
17,U45C A50C C113U,0.85
18,U46C U81A C113A A140G,1.9
19,U45C A124G A140G,0.13
20,U45G C51U G105A,1.83
21,A43U G70A U73C A138G,0.66

row,Variant,self-cleavage
1,U47A A50G U73C,1.75
2,U45A U85C U100C,0.54
3,U47A A65G U109C U119A,0.05
4,U45A U108A U115A,0.14
5,U46C G105U C128A,1.1
6,U46A U109C A129G,1.18
7,U46A A57G U104C,2.63
8,U46C A79G G80A G86A U91A U112C C120A A141G,0.11
9,G44C U81C U85C,0.41
10,U45G U47C A136G,1.23
11,A43U U45A U119C,1.84
12,U47A A59G A117U A138G,0.09
13,U45A U52C U62C U108C,0.07
14,A43G U85C U112A A121G G135A,0.2
15,U46C G83A U100A A117G,0.55
16,U46A A64C A142C,0.35
17,U46C A59G U62C U109C,0.46
18,U46C A77G U112C U143A,2.9
19,A43G U73C A136G,2.42
20,A43G U102C A124U A129U,0.94
21,U46C A57U G126A,0.23

row,Variant,self-cleavage
1,U45C A77U U132C A138G A141G,0.82
2,U46C G49U U109A U119C,1.2
3,A43G U73C U85C,0
4,U45C U115C A129G,2.12
5,U46A A77G U108A,0.63
6,U46A U81A C98U,0.34
7,U46C A129G A136U,1.56
8,U46C U52A U62C A69C A124G,0.29
9,U46G C56U A94G U96C,0
10,U45C U46C U85A U143C,0.14
11,U45C U132C U143C,1.84
12,U46A U47C A50U,0.89
13,U45C A59G U73C,0
14,U46A U81A U87C,0.2
15,A43U U46C G83A A124U,1.13
16,U46C C71U A140G,1.05
17,U45C A67G C98G A140G,0
18,U45C A129G A138G,1.97
19,U45C A57G A79G,1.53
20,U46A U62A A92G,0.07
